In paper PMC4336329 (PLoS ONE, 2015):
Out of some 310,000 compounds screened, about 14,000 (4.5%) showed an effect of 50% or more. The effect is printed as a negative number. Some of the results follow.

Target: human ether-à-go-go-related gene (hERG) potassium channel (human, UniProt Q12809)
Test: primary screen, population patch clamp on CHO cells stably expressing hERG
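Note: peak tail current of the secondary pulse compared with the same well before compound.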

human ether-à-go-go-related gene (hERG) potassium channel, sequence (Q12809 whole entry, looked up): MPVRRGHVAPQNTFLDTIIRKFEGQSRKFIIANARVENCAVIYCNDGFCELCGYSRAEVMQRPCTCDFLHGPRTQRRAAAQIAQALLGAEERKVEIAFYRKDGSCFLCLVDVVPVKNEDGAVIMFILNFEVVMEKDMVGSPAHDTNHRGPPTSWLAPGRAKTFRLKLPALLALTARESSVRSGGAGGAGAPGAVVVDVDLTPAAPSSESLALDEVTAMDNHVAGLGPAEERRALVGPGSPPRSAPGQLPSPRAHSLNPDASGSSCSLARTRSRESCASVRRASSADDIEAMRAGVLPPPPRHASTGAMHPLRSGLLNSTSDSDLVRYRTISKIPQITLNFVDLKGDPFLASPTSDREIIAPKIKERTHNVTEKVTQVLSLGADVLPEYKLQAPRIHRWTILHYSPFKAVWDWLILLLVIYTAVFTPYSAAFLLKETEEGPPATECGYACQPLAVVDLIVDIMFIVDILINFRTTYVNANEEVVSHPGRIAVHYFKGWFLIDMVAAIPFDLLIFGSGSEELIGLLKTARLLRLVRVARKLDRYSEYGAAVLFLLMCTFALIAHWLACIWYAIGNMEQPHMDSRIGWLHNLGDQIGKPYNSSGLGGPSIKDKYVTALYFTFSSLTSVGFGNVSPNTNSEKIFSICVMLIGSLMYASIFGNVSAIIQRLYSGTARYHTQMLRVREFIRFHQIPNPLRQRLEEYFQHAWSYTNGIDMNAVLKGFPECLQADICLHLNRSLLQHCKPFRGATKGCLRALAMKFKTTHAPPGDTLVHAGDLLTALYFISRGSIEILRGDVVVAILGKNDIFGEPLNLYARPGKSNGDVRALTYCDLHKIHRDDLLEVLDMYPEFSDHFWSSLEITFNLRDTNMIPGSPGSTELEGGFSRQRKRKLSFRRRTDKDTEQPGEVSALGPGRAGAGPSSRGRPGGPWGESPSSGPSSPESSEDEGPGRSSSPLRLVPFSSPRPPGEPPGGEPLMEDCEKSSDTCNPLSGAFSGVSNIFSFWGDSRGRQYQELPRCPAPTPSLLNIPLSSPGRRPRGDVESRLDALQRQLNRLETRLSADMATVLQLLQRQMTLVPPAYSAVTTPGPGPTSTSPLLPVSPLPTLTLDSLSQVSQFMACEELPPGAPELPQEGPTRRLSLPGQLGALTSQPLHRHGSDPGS

SMILES | hERG current change (%, negative = inhibition) at 10uM [%]
COCCNC(=O)CN1CCC(NC(=O)Nc2ccc(C(F)(F)F)cc2)CC1 | -29.2
O=C(Cc1ccc(S(=O)(=O)N2CCOCC2)s1)NNC(=O)c1ccccc1Cl | 12.2
Cc1cc2ccccn2c1C(=O)c1ccc(C#N)cc1 | 16.7
O=C(CSc1nc2[nH]ncc2c(=O)[nH]1)NCc1ccccc1 | 15
CC1CCN(C(=S)c2cccc(O)c2)CC1 | 7.49
O=C(CSc1nncn1-c1cccnc1)Nc1ccccc1[N+](=O)[O-] | 2.77
CCC(=O)c1ccc(N2CCCCC2)c(F)c1 | 8.26
CC(=O)Nc1ccc(NC(=O)COC(=O)/C=C/c2ccc3c(c2)OCO3)cc1 | 18.5
Cn1/c(=N/NC(=O)c2ccccc2F)sc2ccccc21 | 5.9
CCCc1nnc(NC(=O)CCC(=O)NCc2ccccc2Cl)s1 | -18.1
C=CCc1c(C)nc(N)[nH]c1=O | 12.8
CC1Sc2ccc(S(=O)(=O)CCC(=O)Nc3ccccn3)cc2NC1=O (centres unmarked) | 21.7
O=C(CC(c1ccco1)S(=O)(=O)c1ccccc1)c1ccccc1 (centres unmarked) | 0.0106
Cc1ccc(C(=O)C(C)OC(=O)CN2C(=O)NC3(CCCC3)C2=O)cc1C (centres unmarked) | 9.76
COc1ccc(CCC(=O)NNC(=O)c2cccs2)cc1 | 5.98
Cc1c(N=Nc2ccc(O)cc2)c(=O)n(-c2ccccc2)n1C | -1.09
CCOC(=O)c1cnn(-c2cc(C)c3ccccc3n2)c1N | -1.77
CCN(CC(=O)Nc1ccccc1OC)C(=O)Cn1cnc2ccccc2c1=O | 4.21
O=C(O)c1cc2cc(F)ccc2[nH]1 | 16.2
O=C(c1cc(-c2cccs2)nn1-c1ccccc1)N1CCN(S(=O)(=O)c2ccccc2)CC1 | -6.31

SMILES | hERG current change (%, negative = inhibition) at 10uM [%]
COC(=O)[C@@H](NC(=O)NCc1ccccc1Cl)C(C)C | 12.3
COc1ccc(CCNC(=O)Cn2nc(C)n3nc(-c4ccccc4)cc3c2=O)cc1OC | 2
Cc1cc(C)nc(SCC(=O)Nc2ccc(N3CCOCC3)cc2)n1 | -6.86
c1ccc(-c2nc3ccccc3s2)nc1 | 4.67
COc1cccc(N2CCN(C(=O)C3CCCN(S(=O)(=O)c4ccc5c(c4)oc(=O)n5C)C3)CC2)c1 (centres unmarked) | -17
CCOC(=O)c1c(NC(=O)Cn2nnc3ccccc32)sc2c1CCC(C)C2 (centres unmarked) | -5.4
CC(C)(C)NC(=O)NC(=O)COC(=O)c1cc[n+]([O-])cc1 | 1.63
Cc1ccsc1/C=C1\SC(N)=NC1=O | 1.92
Br.OCCCn1c(-c2ccccc2)csc1=Nc1ccccc1 | -38.1
CCOc1ccccc1CNCc1ccc(C(=O)O)cc1.Cl | 5.91
COc1cccc2cc(-c3csc(CCn4nc(C)cc4C)n3)c(=O)oc12 | -40.9
NC(=S)c1cnn2c(-c3cccc(C(F)(F)F)c3)ccnc12 | 14.2
CC(=O)Nc1ccc(S(=O)(=O)Nc2ccc(-c3ccc4nnc(C)n4n3)cc2)cc1 | -7.02
Cc1cc(C)c(NC(=O)CSc2nnc(CNC(=O)c3ccco3)o2)c(C)c1 | 6.37
CCC(C)C(=O)Nc1nc(C)c(-c2csc(Nc3ccc(Cl)cc3)n2)s1 (centres unmarked) | 12.4
CCN1C(=O)C(O)(CC(=O)c2cc(C)ccc2C)c2ccccc21 (centres unmarked) | 7.64
N/C(=N\c1nc2c(c(=O)[nH]1)CCC2)Nc1ccccc1C(F)(F)F | 7.27
Cn1c(=O)[nH]c(=O)c2c1nc(CN1CCOCC1)n2Cc1ccccc1 | -15.7
Cc1cccc(C)c1-n1c(=O)n(Cc2ccccc2)c(=O)c2[nH]cnc21 | 9.14
CCOC(=O)c1[nH]c(C)c(C(=O)OCc2ccc(C)cc2)c1C | 19.2

SMILES | hERG current change (%, negative = inhibition) at 10uM [%]
CCCn1nnc(NC(=O)c2ccc(OC)cc2)n1 | 2.42
N#CCc1ccc(NC(=O)Nc2cccc(Cl)c2)cc1 | 16.7
CCc1nnc(NC(=O)c2cccc(S(=O)(=O)N3CC(c4ccccc4)CC3=O)c2)s1 (centres unmarked) | -0.242
O=C(N/C(=C/c1ccc(F)cc1)C(=O)N1CCCC1)c1ccccc1 | 19.5
COc1ccc(Cc2nnc(NC(=O)c3ccccc3)s2)cc1OC | 9.01
CC(C)NC(=O)[C@@H]1CSC2c3ccccc3C(=O)N21 (some centres unmarked) | 12.7
O=C(CSc1ccc(Br)cc1)NCC(c1cccs1)N1CCOCC1 (centres unmarked) | -19.1
O=C(CCn1nnc2ccccc21)Nc1nnc(COc2ccc(F)cc2)s1 | 4.61
CN1CCN(Cc2c(O)ccc3cc(Br)ccc23)CC1 | -33.3
Cc1noc(C)c1C1(O)CCCCCCCCCCC1 | 19
COc1ccc2nc(NCc3cccnc3)sc2c1 | 0.921
COCCNC(=S)NC12CC3CC(CC(C3)C1)C2 | 9.3
O=C(CNC(=O)c1cc(Cl)nc2ccccc12)Nc1ccccc1Br | -8.08
CC(C)CCN1CCN(Cc2cccn2-c2ccccn2)CC1CCO (centres unmarked) | -75.5
COCCNC(=S)N1CCN(c2nc(-c3cccc(OC)c3)cs2)CC1 | -4.13
Cc1ccccc1N(C)S(=O)(=O)c1nnc(NC(=O)c2ccco2)s1 | 4.25
CCC(=O)N1CCc2cc(S(=O)(=O)CCC(=O)N(C)c3ccc(OC)cc3OC)ccc21 | -11.7
COc1ccc2c(c1)C(C)CC(C)(C)N2C(=O)CSc1ncn[nH]1 (centres unmarked) | -10.9
CN(CCCNS(=O)(=O)c1cccc2cccnc12)Cc1ccccc1 | -6.28
